Results published in patent EP4700043A1, “INSECTICIDAL PEPTIDE DERIVED FROM SCORPION VENOM” (Kyoto University, priority 2023, dated 2024).
Not every detail of the peptide structures is certain; ends, links or a residue may be inferred. Bridge positions count the residues as written; N and C are the ends. Peptide text beside a SMILES is read from it.

Test system: crickets
Assay: Median lethal dose (LD50) of insecticidal activity on crickets
Type: in vivo, Acheta domesticus
[1] = injection into thorax (Example 6, Table 9 and text)
[2] = injection into thorax, n=10 (Example 4, Tables 4 and 6)

Row | Structure (SMILES) | LD50 [1] [µg/g body weight] | LD50 [2] [µg / g body weight]
1 | CC(C)C[C@@H]1NC(=O)[C@@H]2CSSC[C@H](NC(=O)[C@H](CCC(=O)O)NC(=O)[C@H](C)NC(=O)[C@H](C(C)C)NC(=O)[C@H](CC(N)=O)NC(=O)CNC(=O)[C@H](CCC(=O)O)NC(=O)[C@H](C)NC(=O)[C@H](Cc3c[nH]cn3)NC1=O)C(=O)N[C@@H](CCC(=O)O)C(=O)N[C@@H](CCC(=O)O)C(=O)N[C@@H](C)C(=O)N[C@H](C(=O)N[C@@H](CCCCN)C(=O)N[C@@H](CCCCN)C(=O)N[C@@H](CO)C(=O)O)CSSC[C@H](NC(=O)[C@H](C)NC(=O)[C@H](CO)NC(=O)[C@@H](N)CC(=O)O)C(=O)N[C@@H](C(C)C)C(=O)N[C@@H](CCC(=O)O)C(=O)N[C@@H](C(C)C)C(=O)N2 [La-κKTx2(H11A)] (H-DSACVEVCLHAEGNVAECEEACKKS-OH; disulfide 4-22, 8-18) | 131 | –
2 | CC(C)C[C@@H]1NC(=O)[C@@H]2CSSC[C@H](NC(=O)[C@H](CCC(=O)O)NC(=O)[C@H](C)NC(=O)[C@H](C(C)C)NC(=O)[C@H](CC(N)=O)NC(=O)CNC(=O)[C@H](CCC(=O)O)NC(=O)[C@H](Cc3c[nH]cn3)NC(=O)[C@H](Cc3c[nH]cn3)NC1=O)C(=O)N[C@@H](CCC(=O)O)C(=O)N[C@@H](CCC(=O)O)C(=O)N[C@@H](C)C(=O)N[C@H](C(=O)N[C@@H](CCCCN)C(=O)N[C@@H](C)C(=O)N[C@@H](CO)C(=O)O)CSSC[C@H](NC(=O)[C@H](C)NC(=O)[C@H](CO)NC(=O)[C@@H](N)CC(=O)O)C(=O)N[C@@H](C(C)C)C(=O)N[C@@H](CCC(=O)O)C(=O)N[C@@H](C(C)C)C(=O)N2 [La-κKTx2(K24A)] (H-DSACVEVCLHHEGNVAECEEACKAS-OH; disulfide 4-22, 8-18) | 8.8 | –
3 | CC(C)C[C@@H]1NC(=O)[C@@H]2CSSC[C@H](NC(=O)[C@H](CCC(=O)O)NC(=O)[C@H](CCCCN)NC(=O)[C@H](C(C)C)NC(=O)[C@H](CC(N)=O)NC(=O)CNC(=O)[C@H](Cc3c[nH]cn3)NC(=O)[C@H](CCC(N)=O)NC(=O)[C@H](CCC(N)=O)NC1=O)C(=O)N[C@@H](CCC(=O)O)C(=O)N[C@@H](CCC(=O)O)C(=O)N[C@@H](C)C(=O)N[C@H](C(=O)N[C@@H](CCCCN)C(=O)N[C@@H](Cc1c[nH]cn1)C(=O)N1CCC[C@H]1C(=O)N[C@H](C(=O)N[C@@H](CCC(=O)O)C(=O)O)C(C)C)CSSC[C@H](NC(=O)[C@@H]1CCCN1C(=O)[C@@H](N)CC(=O)O)C(=O)N[C@@H](Cc1ccc(O)cc1)C(=O)N[C@@H](CCC(=O)O)C(=O)N[C@@H](C(C)C)C(=O)N2 [OmTx1, reference compound] (H-DPCYEVCLQQHGNVKECEEACKHPVE-OH; disulfide 3-21, 7-17) | – | >200
4 | CSCC[C@@H]1NC(=O)[C@@H](NC(=O)[C@H](CO)NC(=O)[C@H](CC(N)=O)NC(=O)CN)CSSC[C@@H](C(=O)N[C@@H](CC(N)=O)C(=O)N[C@@H](CCCCN)C(N)=O)NC(=O)[C@H](C)NC(=O)[C@H](CCCCN)NC(=O)[C@H](CCC(=O)O)NC(=O)[C@@H]2CSSC[C@H](NC(=O)[C@H](C(C)C)NC(=O)[C@H](CCC(=O)O)NC1=O)C(=O)N[C@@H](CC(C)C)C(=O)N[C@@H](Cc1c[nH]cn1)C(=O)N[C@@H](Cc1c[nH]cn1)C(=O)N[C@@H](CCC(=O)O)C(=O)NCC(=O)N[C@@H](CC(N)=O)C(=O)N[C@@H](C(C)C)C(=O)N[C@@H](C)C(=O)N[C@@H](CCC(=O)O)C(=O)N2 [La-κKTx1(Q10H)] (H-GNSCMEVCLHHEGNVAECEKACNK-NH2; disulfide 4-22, 8-18) | – | 28
